Experimental findings from PMC4336329 (PLoS ONE, 2015) are described below.

In all, about 310,000 compounds went through this assay and about 2,200 (0.71%) showed an effect of 50% or more. Effects have a minus sign here. The list shows a part of the results.

Sequence of human ether-à-go-go-related gene (hERG) potassium channel (Q12809 whole entry, looked up): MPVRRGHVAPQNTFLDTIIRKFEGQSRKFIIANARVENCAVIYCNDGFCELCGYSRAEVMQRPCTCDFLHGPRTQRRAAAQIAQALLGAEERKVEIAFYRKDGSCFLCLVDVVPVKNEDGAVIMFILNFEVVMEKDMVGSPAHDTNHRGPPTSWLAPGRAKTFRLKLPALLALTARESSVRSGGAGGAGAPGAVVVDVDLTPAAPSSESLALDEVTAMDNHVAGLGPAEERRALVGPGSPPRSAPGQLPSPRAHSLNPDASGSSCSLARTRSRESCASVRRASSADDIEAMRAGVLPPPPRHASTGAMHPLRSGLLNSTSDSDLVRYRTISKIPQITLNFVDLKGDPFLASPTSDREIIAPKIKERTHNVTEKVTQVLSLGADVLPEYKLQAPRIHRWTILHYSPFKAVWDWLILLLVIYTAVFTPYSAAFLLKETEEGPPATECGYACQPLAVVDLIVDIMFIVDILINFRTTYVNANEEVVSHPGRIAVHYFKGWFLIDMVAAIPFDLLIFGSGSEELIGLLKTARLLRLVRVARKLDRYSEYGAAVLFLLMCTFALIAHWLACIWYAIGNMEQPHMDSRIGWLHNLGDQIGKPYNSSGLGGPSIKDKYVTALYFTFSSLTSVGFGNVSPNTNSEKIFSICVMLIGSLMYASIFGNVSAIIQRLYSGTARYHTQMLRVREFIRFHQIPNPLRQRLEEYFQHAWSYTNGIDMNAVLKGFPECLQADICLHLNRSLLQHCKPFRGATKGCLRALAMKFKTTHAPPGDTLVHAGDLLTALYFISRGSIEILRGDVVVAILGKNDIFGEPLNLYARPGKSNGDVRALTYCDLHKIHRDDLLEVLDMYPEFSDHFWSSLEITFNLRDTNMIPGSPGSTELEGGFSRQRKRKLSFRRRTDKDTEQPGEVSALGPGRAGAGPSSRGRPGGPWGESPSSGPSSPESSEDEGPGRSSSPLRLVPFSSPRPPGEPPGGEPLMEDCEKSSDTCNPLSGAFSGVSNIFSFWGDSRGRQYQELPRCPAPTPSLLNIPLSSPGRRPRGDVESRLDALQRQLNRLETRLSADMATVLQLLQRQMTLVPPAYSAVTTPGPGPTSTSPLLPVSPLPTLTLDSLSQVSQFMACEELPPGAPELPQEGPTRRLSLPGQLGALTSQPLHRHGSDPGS

This assay addresses human ether-à-go-go-related gene (hERG) potassium channel (human, UniProt Q12809). In words: primary screen, population patch clamp on CHO cells stably expressing hERG.
For the compound `Cc1ccccc1CSCCC(=O)NCCC1=CCCCC1`, the “hERG current change (%, negative = inhibition) at 1uM” value was 3.92%. In the case of `O=C1CCN(S(=O)(=O)c2ccc(Cl)cc2)N1` it was 9.36%; in that of `Cc1cc(=O)oc2cc(NC(=O)CCOc3ccccc3)ccc12`, 13.5%; in that of `COc1ccc(OC)c(C(=O)Nc2c(O)ccc3ccccc23)c1`, 14.2%. For the compound `Cc1ccc(NS(=O)(=O)c2ccc3c(c2)CCN3C(=O)CCC(=O)O)cc1Cl`, the “hERG current change (%, negative = inhibition) at 1uM” value was 17.9%. In the case of `Cc1ccc(NC(=O)CCNS(=O)(=O)c2ccc3[nH]c(=O)oc3c2)cc1C` it was 8.64%; in that of `CC(=O)N1c2ccc(S(=O)(=O)NCCC(=O)NCc3ccc(Cl)cc3)cc2CC1C` (stereo not drawn), 9.6%; in that of `Cc1ccccc1C(=O)Nc1ccc(S(=O)(=O)N2CCCC2)cc1`, -6.35%. As to `Cl.O=C(CSc1nc2ccc(Cl)cc2[nH]1)c1cccs1`, the “hERG current change (%, negative = inhibition) at 1uM” value is recorded as 8.42%. As for `CC(=O)c1sc(NC(=O)CCOc2ccccc2)nc1C`, the “hERG current change (%, negative = inhibition) at 1uM” value was found to be 8.12%.

Turning to `O=C(OCCn1cncn1)c1cc2ccccc2oc1=O`, the “hERG current change (%, negative = inhibition) at 1uM” value came to 13.1%. In the case of `CCOC(=O)c1cc(S(=O)(=O)NCCc2ccccc2)cn1C` it was 19.6%; in that of `CC(=O)Nc1ccc(S(=O)(=O)Nc2nc3ccccc3nc2Sc2nncn2C)cc1`, 11.8%. The value for `CC(=O)N1CCN(S(=O)(=O)c2cccc(C(=O)NNC(=O)COc3ccc(Cl)cc3C)c2)CC1` was -10.6%; that for `CCn1c(SCC(=O)N2CCOCC2)nc2ccccc21` was 9.11%.

For the compound `Cn1c(-c2sc(=S)n(-c3ccccc3)c2N)nc2ccccc21`, the “hERG current change (%, negative = inhibition) at 1uM” value was -1.58%. Consider `O=C(CN(c1ccccc1)S(=O)(=O)c1ccccc1)Nc1ccccc1C(=O)NCc1ccco1`, for which the “hERG current change (%, negative = inhibition) at 1uM” value stood at 9.58%. In the case of `CCCCc1nnc(NC(=O)C2CCCO2)s1` (stereo not drawn) it was 10.7%; in that of `COc1ccc(C(C)=O)cc1CSc1nnc(Nc2c(C)cccc2C)s1`, -24.5%. With `O=C(O)c1ccc(-c2noc(-c3cccc(C(F)(F)F)c3)n2)cc1`, the “hERG current change (%, negative = inhibition) at 1uM” value turned out to be 17.7%. In the case of `CC(C)c1ncc(C(O)c2ccccc2)n1C` (stereo not drawn) it was 10.3%; in that of `COc1ccc(N2CCN(CCCNC(=O)C3(S(=O)(=O)c4ccc(Cl)cc4)CC3)CC2)cc1`, -46.7%. In the case of `COc1ccc(CN2CCN(CC3CC3)CC2CCO)c(C)c1C` (stereo not drawn) it was 13.2%; in that of `CC(C)OCCCNC(=S)N1CCC(C(=O)c2ccc3c(c2)OCCO3)CC1`, 1.43%; in that of `Cc1ccc(C(=O)OCC(=O)NC2CCCCC2)o1`, 7.25%. The value for `C#CCNC(=O)C1=C[C@H](c2coc3ccccc3c2=O)C[C@H](OCc2ccc(CO)cc2)O1` was -20.9%; that for `N/C(Cn1cncn1)=N\NC(=O)C(=O)Nc1ccc(Cl)cc1Cl` was 11%. Regarding `C[C@@H]1C=C(C(=O)NCc2ccccc2)O[C@H](OCc2ccc(CO)cc2)C1`, the “hERG current change (%, negative = inhibition) at 1uM” value was 17.8%. The value for `Nc1ccc(-c2cnc3ccccc3n2)cc1` was 18.3%.

As to `O=C(CSCC(=O)N1CCOCC1)Nc1nc(-c2ccccc2)cs1`, the “hERG current change (%, negative = inhibition) at 1uM” value is given as 7.35%. For `Cl.c1cncc(CNCc2ccco2)c1`, the “hERG current change (%, negative = inhibition) at 1uM” value was 12.4%. In the case of `O=C(Nc1nnc(COc2ccc(Cl)cc2)s1)c1cccs1` it was -10.9%. In the case of `CC(C)(C)c1cc(S(=O)(=O)CCc2ccncc2)cc(C(C)(C)C)c1F`, the “hERG current change (%, negative = inhibition) at 1uM” value amounted to 14.1%. In the case of `CCCCNc1nnc(CCn2nc(C)c(Br)c2C)s1`, the “hERG current change (%, negative = inhibition) at 1uM” value stood at 0.787%. Consider `CC[C@@H](CO)C1CC2NC3CC4(c5ccccc5N(C)[C@@H]24)C(O)C31` (stereo partly drawn), for which the “hERG current change (%, negative = inhibition) at 1uM” value turned out to be 0.425%. The value for `Fc1ccccc1CNCCc1ccc2c(c1)OCO2` was 8.75%; that for `CCC(CC)C(=O)Nc1c2cnn(-c3ccccc3)c2nc(=O)n1-c1ccccc1` was -4.94%. In the case of `O=C(CSc1nc2ccc(Cl)cc2[nH]1)NCc1ccco1` it was -8.29%; in that of `CCOC(=O)CSc1ncc(-c2ccc([N+](=O)[O-])cc2)[nH]1`, -23.4%. The value for `Cc1cccn2c(=O)nc(SCC(=O)NCc3ccc4c(c3)OCO4)nc12` was -1.11%. For the compound `O=C(COC(=O)/C=C/c1cccc(C(F)(F)F)c1)NCc1cccs1`, the “hERG current change (%, negative = inhibition) at 1uM” value is 2.97%. In the case of `CCOC(=O)c1[nH]c(C)c(C(=O)OCCN2C(=O)c3ccccc3C2=O)c1C` it was 5.44%. In the case of `COc1cc2c(cc1OC)C(C(=O)Nc1cc(OC)c(OC)c(OC)c1)C(c1cccnc1)N(C)C2=O` (stereo not drawn) it was 1.6%. In the case of `CCOC(=O)C1=C(C)N=c2s/c(=C/c3ccc(OCC(=O)O)cc3)c(=O)n2C1c1ccc(OC)cc1OC` (stereo not drawn) it was 20.5%; in that of `Cc1ccc2cccc(S(=O)(=O)Nc3c(C)n(C)n(-c4ccccc4)c3=O)c2n1`, 4.83%. For the compound `Cc1ccc(S(=O)(=O)N/N=C\c2cc([N+](=O)[O-])ccc2Cl)cc1`, the “hERG current change (%, negative = inhibition) at 1uM” value is listed as 16.5%. In the case of `CCc1ccc(NC(=O)C(=O)NNC(=O)c2cccc(OC)c2)cc1` it was 7.93%; in that of `CCN(CC)c1ccc(/C=C(\C#N)C(=O)c2ccc(Br)cc2)cc1`, 10.6%. The value for `O=C(Nc1ccsc1C(=O)N1CCCC1)c1ccccc1` was 11.5%; that for `c1ccc(-n2ncc3c(N4CCC5(CC4)OCCO5)ncnc32)cc1` was 11%; that for `N#Cc1c(N)n(CCNC(=O)c2ccccc2)c2nc3ccccc3nc12` was 22%. In the case of `Cc1ccc(OCC(=O)Nc2ccc3c(c2)nc(CCN2CCN(C)CC2)n3C)cc1` it was -5.14%; in that of `N#Cc1c(N)nc2c(c1-c1cccc(O)c1)CCCCCC2`, 1.64%; in that of `Cc1ccc(C(=O)Nc2cccc3ccccc23)cc1`, 16.9%. Turning to `COc1cc(OC)c(N(C)S(=O)(=O)c2cccc(C(=O)Nc3nnc(C4CC4)s3)c2)cc1Cl`, the “hERG current change (%, negative = inhibition) at 1uM” value was determined as 2.85%. As for `O=C(N/N=C/C=C\c1cccc([N+](=O)[O-])c1)c1cccnc1`, the “hERG current change (%, negative = inhibition) at 1uM” value was 4.51%. In the case of `O=C(CSc1nnc(-c2cccnc2)n1Cc1ccco1)c1ccc2ccccc2c1` it was -11.8%; in that of `O=c1c2cc(Cl)ccc2[nH]c(=S)n1Cc1cccs1`, 5.16%; in that of `CCOC(=O)c1nn(-c2cccc(Cl)c2)c2nc(CC(C)C)c(C#N)c(=O)n12`, 4.55%. For `CSc1nnc(NC(=O)c2ccc3c(c2)OCO3)s1`, the “hERG current change (%, negative = inhibition) at 1uM” value was found to be 11.3%. In the case of `CCOC(=O)C(NC(C)=O)(Nc1ccc(S(=O)(=O)Nc2cc(C)on2)cc1)C(F)(F)F` (stereo not drawn) it was 8.76%.

Take `Cc1ccc(COC(=O)c2cc(S(=O)(=O)N3CCCCC3)ccc2N2CCOCC2)cc1`: the “hERG current change (%, negative = inhibition) at 1uM” value is on record as -1.22%. In the case of `CCn1c(CSc2nnc(-c3ccoc3C)n2C)nc2cc(S(=O)(=O)N(C)C)ccc21`, the “hERG current change (%, negative = inhibition) at 1uM” value is 10.6%. In the case of `CC(=O)c1cc(F)c(N2CCN(C(=O)c3ccco3)CC2)cc1C` it was 1.87%; in that of `O=C(Nc1ccc(Br)cc1Br)C1CC(=O)N(Cc2ccccc2)C1` (stereo not drawn), 8.64%; in that of `COc1ccc2c(c1)c(=O)oc1c(C)c(OCC(=O)N3CCc4ccccc4C3)ccc12`, 11.4%.

Turning to `O=C(NC(=S)NCCN1CCOCC1)c1ccc(Cl)cc1`, the “hERG current change (%, negative = inhibition) at 1uM” value is reported as -0.0515%. The value for `O=C(CNC(=O)c1ccco1)Nc1ccc(N2CCCCCC2)cc1` was 11.8%. Regarding `O=C(OCc1nnn(Cc2ccccc2)c1-c1c(COC(=O)c2ccccc2)nnn1Cc1ccccc1)c1ccccc1`, the “hERG current change (%, negative = inhibition) at 1uM” value came to 9.98%. In the case of `Cc1ccnc(NC(c2cccnc2)c2ccc3cccnc3c2O)c1` (stereo not drawn) it was 12.1%; in that of `CC(=O)c1ccc(OCC(=O)N(CCC2=CCCCC2)c2c(N)n(Cc3ccccc3)c(=O)[nH]c2=O)cc1`, -1.26%; in that of `CC(=O)N/C(N)=N/c1nc(=O)c2ccccc2s1`, 6.82%. The value for `Cc1ccc(S(=O)(=O)NC(C)(C)CN2CCC(Cc3ccccc3)CC2)cc1.O=C(O)C(=O)O` was -0.184%; that for `Cc1ccc(CNC(=O)CCS(=O)(=O)c2ccc3c(c2)NC(=O)CS3)cc1` was 3.54%. As for `O=C(Cn1cnc2c(cnn2-c2ccc(Cl)cc2)c1=O)NCC1CCCO1` (stereo not drawn), the “hERG current change (%, negative = inhibition) at 1uM” value is given as -0.591%. As for `CN(Cc1ccccc1)c1nc2c(c(=O)[nH]c(=O)n2C)n1Cc1ccccc1Cl`, the “hERG current change (%, negative = inhibition) at 1uM” value is listed as -3.61%. In the case of `O=C1c2ccccc2C(=O)N1Cc1ccccc1F` it was 17.8%; in that of `CCc1ccc(C(=O)NC(CC(C)C)C(=O)O)cc1` (stereo not drawn), -1.75%. Take `CCOC(=O)C1CCN(C(=O)NS(=O)(=O)c2ccc(C)cc2)CC1`: the “hERG current change (%, negative = inhibition) at 1uM” value is reported as 7.63%.

As for `COc1ccccc1NC(=O)N1CCN(c2ccnc3cc(Cl)ccc23)CC1`, the “hERG current change (%, negative = inhibition) at 1uM” value was -15.5%.

In the case of `CCn1cc(C(=O)OCC(=O)OC2CC(C)CCC2C(C)C)c(=O)c2ccc(C)nc21` (stereo not drawn), the “hERG current change (%, negative = inhibition) at 1uM” value was -5.64%. The value for `CCC(C)[C@H](NC(=O)Nc1ccc(S(N)(=O)=O)cc1)C(=O)OC` (stereo partly drawn) was 15.3%. In the case of `O=C(NCC1CCCO1)C1CCC(N2C(=O)c3ccccc3C2=O)CC1` (stereo not drawn) it was 5.06%; in that of `Cc1c(Cl)cccc1NC(=S)N1CCN(Cc2ccccc2)CC1`, 0.485%; in that of `O=C(COC(=O)c1cc(C(F)(F)F)cc(C(F)(F)F)c1)NCc1ccc(Cl)cc1`, 14.5%. Turning to `COc1ccc2c(c1)-c1nc(N)sc1CC2`, the “hERG current change (%, negative = inhibition) at 1uM” value is -4.24%. In the case of `CC1(C)N=C(N)N=C(N)N1c1ccc(OCCCOc2ccccc2)c(Cl)c1.CCS(=O)(=O)O` it was 6.51%.
